Some of the results follow.

This test concerns PF3D7_0420300 AP2 domain 1 (GST-tagged). Briefly: gcPBM binding intensity (ln(normalized median fluorescence intensity)); higher = stronger DNA binding. Put shortly:
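GST-tagged P. falciparum DNA-binding domains produced in E. coli were incubated for 1 h on an Agilent 4 × 180k array of primer-extended double-stranded 36-bp intergenic genomic probes with negative controls. Binding intensity is the highest Masliner-normalised natural-log median intensity across replicate spots of either probe orientation, with bound protein detected by Alexa488 anti-GST antibody at 488 nm.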
As to “TTCTATTTTAATATCTGTACATAATAAAGATCCATT [XGTACX_site1142]”, the “gcPBM binding intensity (ln)” value was 8.99. Then “ATATGACATAAAACATGTACATGTTCATAAATATAT [XGTACX_site1923]”, with 9.34; and “TGAGTACACAATAATACATGCAATTCCTATGAATAT [TGCATGCA_site851]”, with 9.32; and “ATAAATATTAAAAGTACACACAGATACACTAATTAT [CACACA_site1808]”, with 9.75. Then “ATTTACATAATAAAATGTACATTTATAAATATTATA [XGTACX_site1901]”, with 9.13; and “TACACTTTTTATGAAGTGCATGTATAGCTCTTAAAA [GTGCAC_site9595]”, with 8.78; and CATTATTCATTTTGGATGCACTGACAGAAAAATGGT, with 9.26.

Take “ATGCTCAGGAAAACATGTACAAAATTATTTGTTATA [XGTACX_site4306]”: the “gcPBM binding intensity (ln)” value came out at 9.11. Next, “TTACAAGTAAAAGGTACACACATTATAAATACAAAT [CACACA_site4752]”: 9.82; “AAGAAAGACATTACGTGTACCAAACAACCTACCAAC [XGTACX_site4219]”: 9.63; “AAAATTAAACTCACACCACACACAAAAAAAAAAAAA [CACACA_site8131]”: 9.64.

Regarding “TGTTTTATCTTATATGCACACGATAAAAAAAAAAAA [CACACA_site2674]”, the “gcPBM binding intensity (ln)” value was 8.83. Next, “ATGTATATGTCTATATGTACTTATATTTTATTTTTT [XGTACX_site5902]”: 9.37; “ACATAAATATAAACGTGTACATATATAAATATATAT [XGTACX_site7293]”: 9.37; “CATATATAAAAAAACACACACATATATATATATATA [CACACA_site1195]”: 9.63. Then “ATTTTTTTTTTTTATAGTGGATCCACATTTGCCATT [CACACA_negctrl_site1284]”, with 9.27. Then “ATATATTTTAATTGTTGTACATATTAAATAAATAGG [XGTACX_site2311]”, with 8.88. Consider TATATTTTATATATGGTGCAACTTTTATTTAAATAA, for which the “gcPBM binding intensity (ln)” value stood at 8.77. Next, “ATTTTTTTTTTTTTTTTTTTTTTATTCTTGTAATCT [CACACA_negctrl_site1039]”: 9.23.

As to “ATATAATAATAAAGACGTACAAATGTATATATATAC [XGTACX_site3123]”, the “gcPBM binding intensity (ln)” value came out at 9.62. On to CCTTTTTATCTTTTTGTGCACAGACCTTTTTTAAAT, for which the “gcPBM binding intensity (ln)” value is 9.38. Next, “ATGTAAGTTGTGCATTCACACACATATATATATATA [CACACA_site9086]”: 9.52; “AAAAAAAAAAAAAACATACACACAATAAAATAGGGG [CACACA_site2398]”: 10.1; “AACTTAAAAAATAAATGTACATAAATATAAACATAT [XGTACX_site2987]”: 9.36.

Regarding “ATATATATATATATAACACACGCAAAAAAATTAAAT [CACACA_site8395]”, the “gcPBM binding intensity (ln)” value worked out at 9.66. Next, “AAAAAAAAAAAAATCACACATAATATAGAATATGTA [CACACA_site4993]”: 9.1.

Regarding “TATTTAAATTTTAAGTGTACATATTTATTTATATCT [XGTACX_site6545]”, the “gcPBM binding intensity (ln)” value is 8.93.

As to “TCACTATAATAATTTACACACATTTTAAGAAAATGT [CACACA_site3530]”, the “gcPBM binding intensity (ln)” value turned out to be 9.43.

Consider “AAAATGAATAAAAATACACACATATCTGTTATTCTC [CACACA_site5474]”, for which the “gcPBM binding intensity (ln)” value amounted to 9.45. In the case of “GAATATTAATTCATACGTACTTATATATAAGTATAT [XGTACX_site3707]”, the “gcPBM binding intensity (ln)” value was found to be 9.17. Then “TATAAAAATGGGCACACACACACATATATATATTTA [CACACA_site1527]”, with 10.1; and “TTATAATAATATAATACATGCATATATATTTAAATA [TGCATGCA_site903]”, with 9.1. Next, “AATACACTAAACAAAAGTACAAAAATATTCTACAAA [XGTACX_site5162]”: 9.38. Then “ATGGCCTCATTTGGGACACACAACATAAAATATATA [CACACA_site753]”, with 9.31. ATAAACATATAAAAAGTGCATATTCATATATCTACT: the “gcPBM binding intensity (ln)” value was 9.36. Next, “TGTTAATTATAAATTTGTACTTATTTTTACAAAATA [XGTACX_site6598]”: 9.02. As for “AAATATATTTTATGTACACACAAAATTAAGGGATAT [CACACA_site4881]”, the “gcPBM binding intensity (ln)” value is 9.56. Then “CATTTTTTATTTCCTTGTACGAATAAAATATATTTA [XGTACX_site6844]”, with 9; and “AATTTAATATAATGCACACATAAAACAAAAACAAAA [CACACA_site529]”, with 9.71; and “TATTATCGTTCTCATACACACAAAATATACATACAC [CACACA_site2643]”, with 9.86. Next, “TACGTAAATGTGTGTGTGCACGTTATATATTAATAT [GTGCAC_site9976]”: 9.91. With “ACATATATTATTATATGTACATATATTAATTATATA [XGTACX_site3400]”, the “gcPBM binding intensity (ln)” value turned out to be 9.09. Next, “ATCATTTTTAAAGGAACACACAAAAAAAATTAAAAT [CACACA_site4878]”: 9.46; “ACTCTCTTATATTAAACACACATATATATCTGTATA [CACACA_site5489]”: 9.66; “CTTCTCTTTTTTATCATGCACTTTTTGTATAATAAT [GTGCAC_site9834]”: 9.3. Next, “GTAAAATATATAAAATGTACATATATTATATATATA [XGTACX_site489]”: 9.18; “CATTTAAAAGATAAAACACACATACTAATAAAAAAC [CACACA_site5417]”: 9.87; “TTTCTTTATTAAAATATTTTACATATATAATATACG [TGCATGCA_negctrl_site564]”: 9.03. Next, “GATGTTCATCACTACACACACAAAGAAATATATATA [CACACA_site2684]”: 9.76; “AAAGAAAAAAAATATAAAAAATAAAAAATAAAACAA [CACACA_negctrl_site374]”: 9.33; “TTGTATTTCCTTAGGAGTACACATAAATAAGTAAAT [XGTACX_site6677]”: 9.19.

Regarding “TAATATATGTATATATGTACATATAAATGTTATAGA [XGTACX_site2721]”, the “gcPBM binding intensity (ln)” value came out at 9.19.

On to “TTGGTATAAAATTATAGTACATAAGGTAAATATAAA [XGTACX_site4698]”, for which the “gcPBM binding intensity (ln)” value is 9.28.

Turning to “ATTTATATGTGGAGCAGTACGCACTCTCACAATTAA [XGTACX_site7252]”, the “gcPBM binding intensity (ln)” value came to 9.06. Then “TAAAAATTATATATCACACATATATGTCAGTATACA [CACACA_site4624]”, with 9.21; and “CACTACATTATGTCATAAATGCATACATAAACATAT [GTGCAC_negctrl_site513]”, with 9.18.

For “TTTATATTTCAATTTTGTGCTTCGCAAATTGAGAGG [TGCATGCA_negctrl_site327]”, the “gcPBM binding intensity (ln)” value was found to be 8.74. Then “TATAACATAATATAGACACACACATGTACTTATGCC [CACACA_site8547]”, with 9.69; and “GTGTTAATTTTAAATTGTACAAAATTTATATGATTT [XGTACX_site348]”, with 9.05. Next, “GAAAAGCATAGATGCACACATATATATATATATATA [CACACA_site2169]”: 9.26. Regarding “ATATACTTTTTTTTTTTTTTTTTAACGTTATTTATG [CACACA_negctrl_site1277]”, the “gcPBM binding intensity (ln)” value was 9.45. For the sequence “TTACACATATATATAAATATATATAAATATATATAT [CACACA_negctrl_site150]”, the “gcPBM binding intensity (ln)” value stood at 9.08. Next, “AAAATATATGAAAACAGTACATATAAAAATTAAAAA [XGTACX_site2594]”: 9.31; “ATTAATTTTGGTTCATGTACATAAGAAATAAACTCT [XGTACX_site4534]”: 9.12. Then “ATTTTTATACGTTTTTTTTTTTTTTTTTTTTATTTA [CACACA_negctrl_site1142]”, with 9.62.

On to “TACAGACAGAAATGCACACACATATATATATATATA [CACACA_site2283]”, for which the “gcPBM binding intensity (ln)” value worked out at 9.53.

On to “TATTTGTTTGAATTTTTTTTTTTTTTTTTTTATGTG [CACACA_negctrl_site966]”, for which the “gcPBM binding intensity (ln)” value was 9.12. Then “TTTAAATAATCTAGGTGTACTTTCCTTTATAAATGT [XGTACX_site7859]”, with 9.18; and “AGAATACATATATGAACACACAGAGTTTTAAAAAAT [CACACA_site2735]”, with 9.67. Then “TATTTCAATATATACCTTTGCTTTTTTAATATACTT [XGTACX_negctrl_site556]”, with 9.48.

For “TCAATATAAATTAGTTGTACAGTTTTTTTTAATTAT [XGTACX_site6358]”, the “gcPBM binding intensity (ln)” value amounted to 9.18.

For “AATATAAATAAAAACACACACAATGGTACCTATATA [CACACA_site7688]”, the “gcPBM binding intensity (ln)” value amounted to 9.99.

Consider “ATTTTTTGGAAAAGAAGTACAATGGATTTATACGTT [XGTACX_site891]”, for which the “gcPBM binding intensity (ln)” value was found to be 9.09. Next, “ATCAAATAATAGCAAACACACAAAAAATAAAAAAAA [CACACA_site4146]”: 9.82; “AATGTTTTTTTTTTTTTTTTTTTTTATTTATTGTTA [CACACA_negctrl_site505]”: 9.48. Take “TAACATATAATATTATGTACATATATACATATATAA [XGTACX_site7467]”: the “gcPBM binding intensity (ln)” value was 9.09. Regarding “AAAAAATCACGACACACACACACACTAAAAAAAAAA [CACACA_site6792]”, the “gcPBM binding intensity (ln)” value worked out at 10.1. Then “TTAATTTTTGAAGGTACACACTAATATATTAAATAT [CACACA_site4791]”, with 9.27; and “AAAACAGACAAACACACACACACATATATATATATA [CACACA_site3393]”, with 10; and “CTTTTAATTATAAAATGTACTTAAAAATAATAATAC [XGTACX_site635]”, with 9.05. Next, “AAAATGAAACAAATATGTACACATATAAATATTTCC [XGTACX_site54]”: 9.32; “TTATCCCCCTATCATTGTACATTAATACAAACTAAA [XGTACX_site5630]”: 9.54. Then “ATAAAGAAAATATGGAGTACATTTATATCCAATATA [XGTACX_site3085]”, with 9.17; and “TTTTATGAAAAATGGCTTATCTGTAAAGAAGTGGAG [CACACA_negctrl_site1586]”, with 9.11. For “ATATTTGTAATTATTAAACACACACTAATTATATAT [CACACA_site8803]”, the “gcPBM binding intensity (ln)” value is 9.63. Then “AAATATATACTACCGATGCACTAAATATAAACACAT [GTGCAC_site9777]”, with 9.67; and “AAGAATTATATATTCACACAAAAAAAAAGTAAAAGA [CACACA_site5335]”, with 9.5.

With “TATAATATATATATATGTACATATTATTTACATATA [XGTACX_site7312]”, the “gcPBM binding intensity (ln)” value was 9.15. Then “AAAAAAAAAAAAAAGAGTACATTTATTTATATATCT [XGTACX_site2381]”, with 9.06.

For the origin of these results see the supplement of paper PMC11417369.
